According to paper PMC4336329 (PLoS ONE, 2015):
Hit rate of the full screen: of about 310,000 compounds, about 2,200 (0.71%) showed an effect of 50% or more. Effects have a minus sign here. This is one part of the list.

Each compound was assayed against human ether-à-go-go-related gene (hERG) potassium channel (human, UniProt Q12809) (assay: primary screen, population patch clamp on CHO cells stably expressing hERG).
Sequence of human ether-à-go-go-related gene (hERG) potassium channel (Q12809 whole entry, looked up): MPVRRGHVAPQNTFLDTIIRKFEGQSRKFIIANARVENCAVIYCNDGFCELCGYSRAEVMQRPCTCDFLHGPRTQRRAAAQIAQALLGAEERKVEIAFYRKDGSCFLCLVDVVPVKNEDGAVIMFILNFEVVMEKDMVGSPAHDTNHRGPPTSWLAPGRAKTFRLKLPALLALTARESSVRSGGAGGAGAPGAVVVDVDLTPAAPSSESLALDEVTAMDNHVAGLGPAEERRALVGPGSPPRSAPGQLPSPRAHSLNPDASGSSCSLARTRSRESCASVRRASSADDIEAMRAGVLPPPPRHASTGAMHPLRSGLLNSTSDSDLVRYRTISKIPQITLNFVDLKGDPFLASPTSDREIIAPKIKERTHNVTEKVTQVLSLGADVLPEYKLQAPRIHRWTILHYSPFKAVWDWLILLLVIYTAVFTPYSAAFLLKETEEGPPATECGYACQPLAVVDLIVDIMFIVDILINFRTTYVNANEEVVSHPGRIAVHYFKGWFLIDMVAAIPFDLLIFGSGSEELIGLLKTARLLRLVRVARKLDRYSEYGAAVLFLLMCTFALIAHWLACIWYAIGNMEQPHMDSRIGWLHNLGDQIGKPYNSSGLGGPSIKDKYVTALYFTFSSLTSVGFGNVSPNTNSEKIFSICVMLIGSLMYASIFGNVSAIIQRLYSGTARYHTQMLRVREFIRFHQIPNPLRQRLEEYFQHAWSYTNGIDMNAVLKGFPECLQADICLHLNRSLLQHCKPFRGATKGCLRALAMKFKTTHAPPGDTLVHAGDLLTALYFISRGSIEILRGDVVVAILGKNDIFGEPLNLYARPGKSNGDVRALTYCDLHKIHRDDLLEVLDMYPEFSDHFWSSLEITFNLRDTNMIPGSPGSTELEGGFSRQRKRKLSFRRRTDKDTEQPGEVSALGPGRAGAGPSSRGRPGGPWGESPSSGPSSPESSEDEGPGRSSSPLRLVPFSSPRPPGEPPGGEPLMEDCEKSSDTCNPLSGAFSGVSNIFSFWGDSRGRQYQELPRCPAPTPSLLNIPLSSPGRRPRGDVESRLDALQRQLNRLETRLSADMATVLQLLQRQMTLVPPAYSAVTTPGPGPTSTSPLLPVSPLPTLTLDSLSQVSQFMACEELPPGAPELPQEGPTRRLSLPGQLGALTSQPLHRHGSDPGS

| Structure (SMILES) | hERG current change (%, negative = inhibition) at 1uM [%] |
| --- | --- |
| Cc1cccn2c(=O)c(/C=C(\C#N)C(=O)NCc3ccco3)c(N3CCCC(C)C3)nc12 (stereo not drawn) | -3.62 |
| C/C(=N\NC(=O)c1cc(Cl)ccc1O)c1ccc(Br)s1 | 7.57 |
| Nn1c(Cc2cccc3ccccc23)n[nH]c1=S | 15.2 |
| Cc1noc(NS(=O)(=O)c2ccc(NC(=O)CSc3nc4c(cc3C#N)CCC4)cc2)c1C | 8.19 |
| CCCCOC(=O)c1nc[nH]c1C(=O)OCCCC | 11.4 |
| Cc1cc(C)cc(C(=O)N/N=C/c2ccoc2)c1 | 7.53 |
| O=C(CCN1C(=O)C2C3C=CC(C3)C2C1=O)Nc1ccccc1 (stereo not drawn) | 20.3 |
| COc1cc(C(=O)OCC(=O)N2CCCCC2C)cc(NC(=O)c2cccs2)c1OC (stereo not drawn) | 11.3 |
| OCC12COC(c3ccccc3)N1C(c1ccccc1)OC2 (stereo not drawn) | 19.6 |
| O=C(NC(=O)N1CCN(c2ccccc2F)CC1)c1ccccc1 | 14 |
| CCC1C(C#N)=C(SCC(N)=O)NC2=C1C(=O)CC(C)(C)C2 (stereo not drawn) | 10.6 |
| CN1CCN(c2ccc(N)cc2)CC1 | 1.94 |
| Cc1cc(NC(=O)c2cccs2)no1 | 12.4 |
| S=C(NCCCc1ccccc1)Nc1ccc(Cl)cc1 | 26.3 |
| Cc1nc2ccc(NC(=S)N3CCN(c4ccccn4)CC3)cc2nc1C | -0.0707 |
| COc1ccc(C[C@H]2CN3C(=NC[C@H]3Cc3ccccc3)N2CCNC(=O)CCC2CCCCC2)cc1 | -49.2 |
| CC1(c2nnc(Cc3ccccc3)o2)CC(c2ccc(OC(F)(F)F)cc2)=NO1 (stereo not drawn) | -2.18 |
| COc1ccc(NC(=O)c2ccco2)c(NC(=O)c2ccc([N+](=O)[O-])cc2)c1 | -7.99 |
| COc1cc(/C=C2\SC(=S)N(NS(=O)(=O)c3ccc(C)cc3)C2=O)ccc1O | 13 |

| Structure (SMILES) | hERG current change (%, negative = inhibition) at 1uM [%] |
| --- | --- |
| COc1ccc([C@H]2CC(=O)C=C(c3ccc(OC)nc3)C2)cc1 | 15.7 |
| CC1=CC(c2ccccc2)n2nc(N3C(=O)CCC3=O)nc2N1.O=C(O)CCC(=O)O (stereo not drawn) | 8.85 |
| CCOC(=O)c1sc(=S)n(-c2ccc(F)c(F)c2)c1N | 12.4 |
| O=C(NCc1ccc2c(c1)OCO2)c1ccc(CSCc2ccc(Cl)cc2)o1 | 4.23 |
| CN(C)c1ccc(CN(C(=O)c2ccccc2Br)C2CCS(=O)(=O)C2)cc1 (stereo not drawn) | 14.7 |
| CCOc1cccc(C(=O)NC(=S)Nc2ccc(Cl)cc2C(=O)O)c1 | 14.5 |
| COc1cccc(-c2cccc(NC(=O)C3CCN(Cc4ccon4)CC3)c2)c1 | 12.8 |
| CCOC(=O)CN(c1ccccc1)S(=O)(=O)c1ccc(F)cc1 | 14.3 |
| O=C(NNS(=O)(=O)c1ccc(F)cc1)C1CCCCC1 | 18.5 |
| Cc1ccc(S(=O)(=O)N(CC(=O)NCCSCc2ccco2)c2ccc(F)cc2)cc1 | 4.21 |
| CCC(C)c1ccc(NC(=O)C2CC2)cc1 (stereo not drawn) | 5.45 |
| CC1CCCN(S(=O)(=O)c2ccccc2[N+](=O)[O-])C1 (stereo not drawn) | 3.13 |
| COc1ccc(CN(C)CC(=O)Nc2ccccc2C(F)(F)F)cc1 | 8.77 |
| COc1ccc(-c2ccc(Nc3ccc(S(=O)(=O)N4CCCC4)cc3)nn2)cc1OC | 9.5 |
| COc1ccc(/C=C/c2nc(-c3ccccc3)cc(=O)[nH]2)cc1 | 3.52 |
| O=c1[nH]c(SCc2ccccc2Cl)nc2[nH]ncc12 | 8.56 |
| COc1ccc(CCNC(=S)Nc2cccc(C)c2C)cc1 | 0.5 |
| CC(=O)c1c(NC(=O)C(C)C)nc(C)nc1-c1ccccc1 | 3.66 |
| Cc1ccccc1N(C(=O)c1ccco1)C(C(=O)NC1CCCC1)c1cccnc1 (stereo not drawn) | 12.7 |

| Structure (SMILES) | hERG current change (%, negative = inhibition) at 1uM [%] |
| --- | --- |
| CCCN(CC(=O)Nc1ccccc1OC)C(=O)C1=COCCO1 | 5.06 |
| CCOC(=O)C1CCN(C(=O)CCC(=O)NCCc2ccc(Cl)cc2)CC1 | 8.31 |
| CCOC(=O)c1cc(-c2ccccc2)sc1NC(=O)C(C)(C)C | 9 |
| COc1ccccc1NCC(O)COc1ccc(C(C)(C)C)cc1.O=C(O)C(=O)O (stereo not drawn) | 14.9 |
| Nc1nc(SCC(=O)N2CCc3ccccc3C2)[nH]c(=O)c1-c1ccccc1 | 14.8 |
| CCOC(=O)N1CCN(Cc2nc3cc(NC(=O)c4cccs4)ccc3n2C)CC1 | -6.08 |
| CCc1ccc(C(=O)CSc2n[nH]c(C)n2)cc1 | 3.75 |
| COc1cc(/C=N/Nc2nc3ccccc3s2)ccc1O | 3.76 |
| COC(=O)CCCC1=CC2=CC(=O)C(C)(O)C(=O)C2=CO1 (stereo not drawn) | 6.76 |
| COCCCn1c2nc3ccccc3nc2c2c(=O)n(-c3ccccc3OC)cnc21 | 9.83 |
| CC(C)Cn1c(N)c(-c2nc(C(C)C)c(C(=O)c3ccccc3F)s2)c(=O)n(C)c1=O | 14.8 |
| O=C(CSC1=NCCS1)Nc1ccc(S(=O)(=O)N2CCCCCC2)cc1 | 11.1 |
| Cc1cnc(NC(=O)CSc2nnc(-c3ccncc3)n2C2CCCCC2)s1 | -2.34 |
| N#CCC(=O)N/N=C\c1cccc(OC/C=C/c2ccccc2)c1 | 11.6 |
| Cn1c(=O)n(CCc2ccccc2)c2ccccc21 | 11.8 |
| COc1ccc(-n2c(CCC(=O)O)ccc2-c2ccc(F)cc2)c(OC)c1 | 10.4 |
| COC(=O)CN1C(=O)N/C(=C/c2ccc(OC)cc2)C1=O | 5.95 |
| O=C(CN(Cc1ccccc1)S(=O)(=O)c1ccc(Cl)cc1)NCC1CCCO1 (stereo not drawn) | 3.41 |
| CCc1nccn1CCC(=O)NC1CC(C)(C)Cc2c1cnn2-c1ccc(C)cc1 (stereo not drawn) | 2.16 |
